# From the supplement of paper PMC8728848
# The other results are listed elsewhere or left out.
# B1: PX9961V-pdi-562-26-562 (Parabacteroides distasonis) (protein)
# chain: EIFSEITTDNYYQNSNNIYAALVNNYAKAFSTGWSDARYFLQEVTADQLMIPTRGKHGYNGGEYVRLHEHKWTVEENFVYNGWAAPFQGIALCNNTLSDFENLDFSTFKLTEETKNEYIAELRALRVWNYMFLIDFFRHVPIVTDIEEVKAQSTPLEVFNFMESELLAILPDLPKNRGVSRFDQAGVASILVRLYLNAEKWIGISKYDECEQMAQAILDGKYGEYSIDPDYRGPFRSGINGYRSKENIMEFAIKKNYFEASWLYNMWMHYQDRYSLDNDWQGWNGGNLAPSRDLYGNLYQDKLGMPFEKFPDGDIRKKAFRVISNDGDYEGFFLMGTQYKFDYEKGYGFTDEVITGTEEYNGKPLVYVDQVGRFSEGETGLAKGSHVIYGEENTGYRLIKFPWLPQSKDLFQMNSIPEIRLAEIYYSLAECKYRSGDKIGAARLLDVVRKRYYKAEDWSKFSYESNISKLTDDEFVDELGREFIGERHRRIDLIRWNRFSEGAWWDKTPDATNQDVFPIPYRALNANPLLKQTTAGF
# How the values were obtained:
# Experiment in all cases: glycan array binding signal (z-score within array); higher = stronger binding
# Conditions in all cases: glycan notation: IUPAC condensed, linker removed
# [1] = target: Neu5Ac(a2-3)Gal(b1-3)GalNAc
# Summary of the method: (§1)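 Arrays were curated from the Consortium for Functional Glycomics database, 3228 in total, and kept only where the protein sequence was available. Binding is expressed as a within-array Z-score. This score was averaged across arrays of the same protein sequence at different concentrations or buffers and across linkers, and negative values can be read as non-binding.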
# [2] = target: Neu5Ac(a2-3)Gal(b1-3)GalNAc(b1-3)Gal(a1-4)Gal(b1-4)Glc
# Summary of the method: as §1
# [3] = target: Neu5Ac(a2-3)Gal(b1-3)GalNAc(b1-4)[Neu5Ac(a2-3)]Gal(b1-4)Glc
# Summary of the method: as §1
# [4] = target: Neu5Ac(a2-3)Gal(b1-3)GalNAc(b1-4)[Neu5Ac(a2-8)Neu5Ac(a2-3)]Gal(b1-4)Glc
# Summary of the method: as §1
# [5] = target: Neu5Ac(a2-3)Gal(b1-3)GalNAc6S
# Summary of the method: as §1
# [6] = target: Neu5Ac(a2-3)Gal(b1-3)GlcNAc
# Summary of the method: as §1
# [7] = target: Neu5Ac(a2-3)Gal(b1-3)GlcNAc(b1-2)Man
# Summary of the method: as §1
# [8] = target: Neu5Ac(a2-3)Gal(b1-3)GlcNAc(b1-2)Man(a1-3)[GlcNAc(b1-4)][Neu5Ac(a2-3)Gal(b1-3)GlcNAc(b1-2)Man(a1-6)]Man(b1-4)GlcNAc(b1-4)GlcNAc
# Summary of the method: as §1
# [9] = target: Neu5Ac(a2-3)Gal(b1-3)GlcNAc(b1-2)Man(a1-3)[Neu5Ac(a2-3)Gal(b1-3)GlcNAc(b1-2)Man(a1-6)]Man(b1-4)GlcNAc(b1-4)GlcNAc
# Summary of the method: as §1
# [10] = target: Neu5Ac(a2-3)Gal(b1-3)GlcNAc(b1-3)Gal(b1-3)GlcNAc
# Summary of the method: as §1
# [11] = target: Neu5Ac(a2-3)Gal(b1-3)GlcNAc(b1-3)Gal(b1-4)GlcNAc
# Summary of the method: as §1
# [12] = target: Neu5Ac(a2-3)Gal(b1-3)GlcNAc(b1-3)GalNAc
# Summary of the method: as §1
# [13] = target: Neu5Ac(a2-3)Gal(b1-3)GlcNAc(b1-4)Gal(b1-4)Glc
# Summary of the method: as §1
# [14] = target: Neu5Ac(a2-3)Gal(b1-3)GlcNAc(b1-6)GalNAc
# Summary of the method: as §1
# [15] = target: Neu5Ac(a2-3)Gal(b1-3)GlcNAc6S
# Summary of the method: as §1
# [16] = target: Neu5Ac(a2-3)Gal(b1-3)[Fuc(a1-4)]GlcNAc
# Summary of the method: as §1
# [17] = target: Neu5Ac(a2-3)Gal(b1-3)[Fuc(a1-4)]GlcNAc(b1-3)Gal(b1-3)[Fuc(a1-4)]GlcNAc
# Summary of the method: as §1
# [18] = target: Neu5Ac(a2-3)Gal(b1-3)[Fuc(a1-4)]GlcNAc(b1-3)Gal(b1-4)[Fuc(a1-3)]GlcNAc
# Summary of the method: as §1
# [19] = target: Neu5Ac(a2-3)Gal(b1-3)[GlcNAc(b1-6)]GalNAc
# Summary of the method: as §1
# [20] = target: Neu5Ac(a2-3)Gal(b1-3)[Neu5Ac(a2-6)]GalNAc
# Summary of the method: as §1
# [21] = target: Neu5Ac(a2-3)Gal(b1-3)[Neu5Ac(a2-6)]GlcNAc(b1-3)[Fuc(a1-3)[Gal(b1-4)]GlcNAc(b1-6)]Gal(b1-4)Glc
# Summary of the method: as §1
# [22] = target: Neu5Ac(a2-3)Gal(b1-3)]Neu5Ac(a2-3)Gal(b1-4)]GlcNAc
# Summary of the method: as §1
# [23] = target: Neu5Ac(a2-3)Gal(b1-4)Glc
# Summary of the method: as §1
# [24] = target: Neu5Ac(a2-3)Gal(b1-4)GlcNAc
# Summary of the method: as §1
# [25] = target: Neu5Ac(a2-3)Gal(b1-4)GlcNAc(b1-2)Man
# Summary of the method: as §1
# [26] = target: Neu5Ac(a2-3)Gal(b1-4)GlcNAc(b1-2)Man(a1-3)[GlcNAc(b1-4)][Neu5Ac(a2-3)Gal(b1-4)GlcNAc(b1-2)Man(a1-6)]Man(b1-4)GlcNAc(b1-4)GlcNAc
# Summary of the method: as §1
# [27] = target: Neu5Ac(a2-3)Gal(b1-4)GlcNAc(b1-2)Man(a1-3)[Neu5Ac(a2-3)Gal(b1-4)GlcNAc(b1-2)Man(a1-6)]Man(b1-4)GlcNAc(b1-4)GlcNAc
# Summary of the method: as §1
# [28] = target: Neu5Ac(a2-3)Gal(b1-4)GlcNAc(b1-2)Man(a1-3)[Neu5Ac(a2-3)Gal(b1-4)GlcNAc(b1-2)Man(a1-6)]Man(b1-4)GlcNAc(b1-4)[Fuc(a1-6)]GlcNAc
# Summary of the method: as §1
# [29] = target: Neu5Ac(a2-3)Gal(b1-4)GlcNAc(b1-2)Man(a1-3)[Neu5Ac(a2-6)Gal(b1-4)GlcNAc(b1-2)Man(a1-6)]Man(b1-4)GlcNAc(b1-4)GlcNAc
# Summary of the method: as §1
# [30] = target: Neu5Ac(a2-3)Gal(b1-4)GlcNAc(b1-2)[Neu5Ac(a2-3)Gal(b1-4)GlcNAc(b1-4)]Man(a1-3)[GlcNAc(b1-4)][Neu5Ac(a2-3)Gal(b1-4)GlcNAc(b1-2)[Neu5Ac(a2-3)Gal(b1-4)GlcNAc(b1-6)]Man(a1-6)]Man(b1-4)GlcNAc(b1-4)GlcNAc
# Summary of the method: as §1
# [31] = target: Neu5Ac(a2-3)Gal(b1-4)GlcNAc(b1-2)[Neu5Ac(a2-3)Gal(b1-4)GlcNAc(b1-4)]Man(a1-3)[GlcNAc(b1-4)][Neu5Ac(a2-3)Gal(b1-4)GlcNAc(b1-4)Man(a1-6)]Man(b1-4)GlcNAc(b1-4)GlcNAc
# Summary of the method: as §1
# [32] = target: Neu5Ac(a2-3)Gal(b1-4)GlcNAc(b1-2)[Neu5Ac(a2-3)Gal(b1-4)GlcNAc(b1-6)]Man(a1-6)[Neu5Ac(a2-3)Gal(b1-4)GlcNAc(b1-2)Man(a1-3)]Man(b1-4)GlcNAc(b1-4)GlcNAc
# Summary of the method: as §1
# [33] = target: Neu5Ac(a2-3)Gal(b1-4)GlcNAc(b1-2)[Neu5Ac(a2-3)Gal(b1-4)GlcNAc(b1-6)]Man(a1-6)[Neu5Ac(a2-3)Gal(b1-4)GlcNAc(b1-2)Man(a1-3)][GlcNAc(b1-4)]Man(b1-4)GlcNAc(b1-4)GlcNAc
# Summary of the method: as §1
# [34] = target: Neu5Ac(a2-3)Gal(b1-4)GlcNAc(b1-3)Gal
# Summary of the method: as §1
# [35] = target: Neu5Ac(a2-3)Gal(b1-4)GlcNAc(b1-3)Gal(b1-3)GlcNAc
# Summary of the method: as §1
# [36] = target: Neu5Ac(a2-3)Gal(b1-4)GlcNAc(b1-3)Gal(b1-4)GlcNAc
# Summary of the method: as §1
# [37] = target: Neu5Ac(a2-3)Gal(b1-4)GlcNAc(b1-3)Gal(b1-4)GlcNAc(b1-2)Man(a1-3)[Neu5Ac(a2-3)Gal(b1-4)GlcNAc(b1-3)Gal(b1-4)GlcNAc(b1-2)Man(a1-6)]Man(b1-4)GlcNAc(b1-4)GlcNAc
# Summary of the method: as §1
binder,measurement,setting,value
B1,glycan array binding signal (z-score),[1],-0.429
same,glycan array binding signal (z-score),[2],-0.516
same,glycan array binding signal (z-score),[3],-0.122
same,glycan array binding signal (z-score),[4],-0.57
same,glycan array binding signal (z-score),[5],-0.819
same,glycan array binding signal (z-score),[6],-0.498
same,glycan array binding signal (z-score),[7],0.197
same,glycan array binding signal (z-score),[8],0.213
same,glycan array binding signal (z-score),[9],-0.48
same,glycan array binding signal (z-score),[10],-0.65
same,glycan array binding signal (z-score),[11],-0.475
same,glycan array binding signal (z-score),[12],-0.531
same,glycan array binding signal (z-score),[13],-0.516
same,glycan array binding signal (z-score),[14],0.271
same,glycan array binding signal (z-score),[15],-0.515
same,glycan array binding signal (z-score),[16],-0.598
same,glycan array binding signal (z-score),[17],-0.607
same,glycan array binding signal (z-score),[18],-0.02
same,glycan array binding signal (z-score),[19],-0.487
same,glycan array binding signal (z-score),[20],-0.548
same,glycan array binding signal (z-score),[21],-0.421
same,glycan array binding signal (z-score),[22],-0.553
same,glycan array binding signal (z-score),[23],-0.547
same,glycan array binding signal (z-score),[24],-0.65
same,glycan array binding signal (z-score),[25],0.032
same,glycan array binding signal (z-score),[26],-0.631
same,glycan array binding signal (z-score),[27],0.234
same,glycan array binding signal (z-score),[28],-0.037
same,glycan array binding signal (z-score),[29],-0.106
same,glycan array binding signal (z-score),[30],0.059
same,glycan array binding signal (z-score),[31],-0.104
same,glycan array binding signal (z-score),[32],0.076
same,glycan array binding signal (z-score),[33],-0.556
same,glycan array binding signal (z-score),[34],-0.014
same,glycan array binding signal (z-score),[35],-0.575
same,glycan array binding signal (z-score),[36],-0.53
same,glycan array binding signal (z-score),[37],0.084
